Laboratory results as given in the supplement of paper PMC11417369.
Some of the results follow.

Tested on: PF3D7_0420300 AP2 domain 1 (GST-tagged)
Experiment: gcPBM binding intensity (ln(normalized median fluorescence intensity)); higher = stronger DNA binding
Procedure, shortened: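 Binding of GST-tagged P. falciparum DNA-binding domains, expressed in E. coli and used at about 25 μg on average, was carried out for 1 h in 1× PBS containing 1% milk, 0.2 mg/ml BSA, 0.5% salmon testes DNA and 0.03% Triton X-100. The target was an Agilent 4 × 180k array of primer-extended double-stranded 36-bp intergenic genomic probes plus negative controls, read with Alexa488 anti-GST antibody at 488 nm. Binding intensity is the highest Masliner-normalised natural-log median intensity across replicate spots of either probe orientation.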

Sequence | gcPBM binding intensity (ln)
TTTTCTTATAAATGAAGTACAAAAAAAAAATATATA [XGTACX_site1352] | 9.03
TGATAGCACCTTATATGTACATATAATATATTATTA [XGTACX_site837] | 9.35
ACATATATGGAGCTTATACACACTTTTATATTTTAA [CACACA_site3854] | 9.35
TTTTAAATATGCCATACACACTACTCTATAATAAAT [CACACA_site6987] | 9.43
TTATCATATAATTATTGTACTAAAAAAAAAGCGAGT [XGTACX_site3086] | 9.31
TATATATATATGTGTACACATGTCGCATTTTTTTAT [CACACA_site4648] | 9.62
GATATTATAAAATAAAAATAAATCATTTCTATTCAT [CACACA_negctrl_site334] | 8.92
TTATGTGTATAGGTTTGTACATAAAATGATGTATAG [XGTACX_site1401] | 9.18
TCATGGAATATTTAAAGTACAAAAAGTGTTCTTTAC [XGTACX_site715] | 8.99
TAGTCATATATATATGTACACACATATATATATTTA [CACACA_site8413] | 9.38
ATTTATTTTGTTGTTGTTTTTATTTGATTGTTTTAT [CACACA_negctrl_site1275] | 9.84
TTATGGTGCAACATTATGCACACCGTTAAATAACTA [CACACA_site3846] | 9.08
ACAAAATTATGTAGATGTACAGACATAGAAAGAGAT [XGTACX_site3096] | 9.71
ATTTATGAAAAATGTACACACATCAAATGCTTATAT [CACACA_site4068] | 9.42
GTTTGAATGGCGCACTGTACACATATATACATATAG [XGTACX_site8619] | 9.6
TAAAAGTTCACCTGTACACACATATAAATATGTACA [CACACA_site6901] | 9.36
AACAGACGAAGACACACACACATATATATATATATA [CACACA_site1020] | 9.73
CGTTTTCTATATCATTGTACATATTCATGTGTAAAT [XGTACX_site2741] | 9.24
AAAATTAACCGTAACACACACACATATAAATATGTA [CACACA_site7791] | 9.95
TTGTTTAAGTCACGAACACACATATATCATCAATTT [CACACA_site986] | 9.42
ATTAATAAATTCAATTGTACTTGTTTATACATAAAA [XGTACX_site3733] | 9.05
TTATTTTATTTTTGTGCACACTGATAAATTGAAAAG [CACACA_site2949] | 9.12

Sequence | gcPBM binding intensity (ln)
TATTAATTTAAATGGGTGCAAAACCTATATAAATAT | 9.23
ATTTATGTTAATAAGTGTACAATAAATTTTTTTTAT [XGTACX_site7658] | 9.07
AACATATATAAATACACACACATATATATATGAAAT [CACACA_site4312] | 9.98
ATAACAAAAAAAAAGGTGCTACAAAATGAATAAAAA [GTGCAC_site9659] | 9.65
TACATATATATATATGTACACACATTAATAAAAAAA [CACACA_site9058] | 9.46
ATATTTTATTTTAATACACACAAGTTATATAACCAC [CACACA_site6508] | 9.5
AATATAAATAATTATACACACTTAATATATATATAC [CACACA_site5533] | 9.55
ATATTTAGGAAAAATAGTACACATTTAAATAATAAT [XGTACX_site7989] | 9.34
TAGGTGCCTTTTTTCACACACATGTCAACTAAATAT [CACACA_site2656] | 9.65
AAATATATATATATATATATAAATATATACATATAT [TGCATGCA_negctrl_site517] | 9.01
CTTTAAATTAATAAAAGTACATTATTTATATATTTT [XGTACX_site4808] | 9.02
TGTATAAATATATATACACACATATTTATATATATA [CACACA_site755] | 9.31
TATATATGTATCATTACACACATGTATACTTATTTG [CACACA_site4138] | 9.71
ATATATGTGCCCATATATATATATATAAATATATGT [GTGCAC_negctrl_site226] | 9.23
TACATTTGTATAAATAGTACGCGAAAACAAAAAAAA [XGTACX_site6246] | 9.49
TAAAAAAAAACAGAAACACACATTATTCATATATAT [CACACA_site2049] | 9.77
AAAATATTTATGTATGCATGTTGTAATATTTCTTTA [TGCATGCA_site296] | 9.28
ATTTCCCCTTTTTATTGTACATTTTTATTTGTTACT [XGTACX_site4845] | 9.94
TATGCTATATATTTAGTGCATATATATAACTTTTAT [GTGCAC_site9902] | 9.16
AATATATATTTATAAACACACACCAAAATTTGTGCT [CACACA_site3091] | 9.46
ACATTTTGTGTTTTAGCACACAATTTTTCAGAATAT [CACACA_site2961] | 9.36
TATTAGCATGTTATTACACACAATATAAGATATATA [CACACA_site6775] | 9.32

Sequence | gcPBM binding intensity (ln)
ATATTATAATATTTATGTACATATATATAATATATA [XGTACX_site1633] | 9.12
TTTTCTACATCTTGTTGTACGAAAAATAAAAAAAAT [XGTACX_site4620] | 8.97
AGTACGTAAATTATAATACACACTATAGGATATTCT [CACACA_site2559] | 9.51
ATGTAATGTTATGTTATGTTTTTTTTTTTTTTGTGT [CACACA_negctrl_site1264] | 9.58
AAAATTATATATTTTAGTACATAAAATATTGACATA [XGTACX_site2581] | 9.06
TTTTAAACAGGACACACACACATATATATATATATA [CACACA_site4664] | 9.66
GTTATTGTAAAAAGATTACACACGTTCTATATACTT [CACACA_site2473] | 9.54
GGAATATGTATATTTTGTACGTATACATTTTTTGGG [XGTACX_site7681] | 9.4
GATATATTTTATATATGTACATACAGTGGTAAATAT [XGTACX_site1324] | 9.31
TTTATACAAAAAAACAAAATCAAACAAAAAAAAAAA [CACACA_negctrl_site252] | 9.19
CAAAAAAGGTCCCGGAGTACATATATAATTTTTTTT [XGTACX_site458] | 9.23
GAGATGACATTACACAGTACCCAGGAAATCTACGGA [XGTACX_site4931] | 9.32
TATATATTGTTATATACACACATGTATATAAAAAAT [CACACA_site3221] | 9.4
ATTGTCCTAAATACTACAAAGTAGATCTTTAATATT [CACACA_negctrl_site1795] | 9.15
TAATTCCATAAGTAAACACACAAATGCCAAAATTTT [CACACA_site3205] | 9.42
GTGCGTGCGTGTACTTAACACACATAATATGTATTT [CACACA_site8336] | 9.51
TCCATATGCAAACTGGTGCACAAGTAGCTTTTATAT | 9.19
TTAAGCCGCAATATGGGTACATAGGAAGAAGGGGAA [XGTACX_site8397] | 9.25
ATATATAAAAATATTTGTACATATAGTTATATTTAT [XGTACX_site6114] | 9.26
TTCTTTGCTTCTGTTTCACACATTTTTAAAATAAGC [CACACA_site4741] | 9.52
TTTCTTTTTCTAGTTATTTTTACTTATCCCTAATTT [TGCATGCA_negctrl_site460] | 9.2
TTATAATTAAGATATAATCAATAATAACAAATGAAC [CACACA_negctrl_site1690] | 9.37

Sequence | gcPBM binding intensity (ln)
TTAAAGGGAATGTATACACACGTTTCTCTATGTTAT [CACACA_site4793] | 9.57
TTGTATTTACACGATCAACCAAATGGTATATAAATA [GTGCAC_negctrl_site167] | 9.1
ATATGTAGTTTTTACCTAATAAAAAAAAAAAAAAAA [CACACA_negctrl_site672] | 8.58
AAATCATTCCTTTATTCACACAATATCTGTATTTAT [CACACA_site4407] | 9.51
TAAACATATAAAAAGGGTACACATTAAACATAGTAT [XGTACX_site7096] | 9.44
AAAACAAATTAAAATCGTACAATTATAATGTTAATG [XGTACX_site180] | 9.2
TATAAAATAAAAATTATATATTTTAAATGGATACAA [TGCATGCA_negctrl_site284] | 8.99
ATAGCTAAGATAGCTTGTACATATATTTACATATAT [XGTACX_site3694] | 9.2
ATGCACATTTATAAAAGTACATGTATGTAATATGTT [XGTACX_site830] | 9.19
ATTTAAATGAAAAAATGTACAAAAAGATTTAAACTC [XGTACX_site1489] | 9.31
AATGTCCTTATTTGCACACACACATATAAGAAATTT [CACACA_site3186] | 10
ATTTGAGAGTTAACAAAATATTTGGCCATCTTTTAT [XGTACX_negctrl_site447] | 9.11
TATAATAAATCATATGCATGTTGAAAAAAAAAAAAA [TGCATGCA_site923] | 9.12
AACTCATAGCGGTGTGCACACAAAAAATTAAAAAAA [CACACA_site3033] | 9.73
TCATAAATGAAACACACACACACATCTGGATACCCC [CACACA_site3332] | 10.1
ATTATATATATAAAGTGTACAAAAAAAAAAAAAAAA [XGTACX_site3134] | 9.09
AATCAATATAAATAAAATTTTTAATTTTAACCCTAA [GTGCAC_negctrl_site266] | 9.03
TAATAATATATTTGTAGTACACAATTTTTTATAACT [XGTACX_site3951] | 9.18
TACTTATATACACATGTATATTATATATATAATATA [XGTACX_negctrl_site335] | 9.2
TGTTATTAAAATATAGTGCATAATTAACCATTATAA [GTGCAC_site9594] | 9.1
CACACGCACGGACACACACACATATAAAATCTATAT [CACACA_site6428] | 9.91
TACTATAACAGACATACACACAAAAAAAAAAAAAAA [CACACA_site538] | 9.52
